Assay results taken from PubChem BioAssay AID504466 (National Center for Advancing Translational Sciences (NCATS), 2011).
Out of some 330,000 compounds screened, about 4,200 (1.3%) were called active. Inconclusive results, whose numbers are uncertain, are shown with a selection of clear calls. Calls come from the whole dose curve; as a rule, active = well fitted activation curve with a large enough effect; inconclusive = small, poorly fitted or top-dose-only effect; inactive = no such curve, though single readings can be large or run the other way. Potencies of inconclusive entries are doubtful fits and often do not repeat.

Experiment: qHTS screen for small molecules that induce genotoxicity in human embryonic kidney (HEK293T) cells expressing luciferase-tagged ELG1; note: nearly all actives have a fitted effect of over 60% in size; for activity change, positive = activation: % of control where 0% means no effect
Conditions: HEK293T ELG1-luciferase reporter, luminescence, 16 h; series mostly up to 46 µM; activity change, positive = activation: at the top concentration
How it was run: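 Screening used a luciferase reporter fused to human ELG1 in HEK293T cells. Luminescence was read on a CCD plate imager after 16 hr exposure and 30 min ONE-Glo incubation.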
Potency is the fitted concentration of half-maximal effect; tags give direction and shape of the fitted curve.

Compound	Potency	activity change, positive = activation
CCOC(=O)c1c(NC(=O)CSc2nnc(-c3ccccc3)o2)sc(C(C)=O)c1C	inconclusive: 18.4 µM [activator, partial curve, poor fit]	–
O=[N+]([O-])c1ccccc1OCCCn1cnc2ccccc21	inconclusive: 5.8 µM [activator, partial curve]	–
CC(C)(C)c1ccc(N2C(=O)Cc3c2nc(N)c(C#N)c3N)cc1	inconclusive: 18.4 µM [activator, single point]	–
C/C(NC(=O)c1ccccc1)=C1/C(=O)CC2C1C2(C)C (stereo unspecified)	inconclusive: 25.9 µM [activator, partial curve, poor fit]	–
COc1cc2c3c(c1)C1(C(=O)N3C(C)(C)C=C2C)C(C#N)=C(N)Oc2cc(C)oc(=O)c21 (stereo unspecified)	inconclusive: 32.6 µM [activator, partial curve, poor fit]	–
Cc1ccc2oc(-c3ccc(NC(=O)CC(C)C)cc3)nc2c1	active: 2.31 µM	–
CC(CN1CCCCC1)OC(=O)c1ccc2c(c1)OCCO2 (stereo unspecified)	inconclusive: 23.1 µM [activator, partial curve, poor fit]	–
COc1cccc(C2NC(=O)NC(C)=C2C(=O)Nc2cc(OC)ccc2OC)c1 (stereo unspecified)	inconclusive: 29.1 µM [activator, partial curve, poor fit]	–
c1ccc(OCc2nc(-c3ccncc3)no2)cc1	–	inactive: 10.2%
CCOC(=O)c1c(C)[nH]c(N=Nc2ccccc2)c1C	active: 11.6 µM	–
O=C1c2cccnc2C(=O)N1c1cccc(-c2nc3ccccc3o2)c1	–	inactive: 2.63%
C=CCN1CCN(C(=O)c2cc3c(s2)CCCC3)CC1	inconclusive: 18.3 µM [activator, partial curve, poor fit]	–
COc1ccccc1C1c2ccc3ccccc3c2Oc2ncn(CCN(C)C)c(=N)c21 (stereo unspecified)	inconclusive: 32.6 µM [activator, partial curve, poor fit]	–
Cc1ccc(/C=C2\OC(=O)c3ccccc32)cc1	inconclusive: 11.6 µM [activator, partial curve, poor fit]	–
COc1ccc(/C=C/C(=O)O/N=C(\N)c2ccccn2)cc1OC	inconclusive: 7.3 µM [activator, partial curve]	–
O=C(COc1ncnc2ccccc12)c1ccc(Cl)cc1	inconclusive: 20.6 µM [activator, partial curve]	–
Cc1ccc(OCCCC(=O)N2CCOCC2)c(C)c1	active: 20.6 µM	–
COc1ccccc1NC(=O)Nc1ccc(N2CCOCC2)cc1	inconclusive: 16.4 µM [activator, single point]	–
CC(=Nc1cccc(O)c1)c1sc2ccccc2c1O	active: 1.64 µM	–
CCc1cc(CNC(=O)c2cc(COc3ccc(C)nc3)on2)on1	inconclusive: 13 µM [activator, partial curve]	–
COc1cccc(-n2c(N)cc(=O)nc2SCC(=O)N2CCN(c3ccccc3)CC2)c1	–	inactive: 1.35%
CCCOc1cccc(C(=O)Nc2ccc(Br)cc2F)c1	inconclusive: 10.3 µM [activator, partial curve]	–
COC(=O)NNC(=O)c1ccccc1OC	–	inactive: -0.289%
Cc1nn(C(=O)CNC(=O)c2ccccc2)c(C)c1C	–	inactive: 7.23%

Compound	Potency	activity change, positive = activation
Cc1cccc(NCc2ccc(N(C)C)cc2)n1	active: 18.3 µM	–
Cc1ccc(Nc2ncccc2C(N)=O)cc1[N+](=O)[O-]	inconclusive: 18.4 µM [activator, partial curve]	–
Cc1cc(NC(=O)C2COc3ccccc3O2)no1 (stereo unspecified)	inconclusive: 13 µM [activator, partial curve, poor fit]	–
Cc1nc2ccccc2c2oc(C(=O)N3CCN(C4CCCCC4)CC3)cc12	–	inactive: -3.59%
CC(C)(C)c1ccc(NC(=O)COC(=O)C2(C)CC2(Cl)Cl)cc1 (stereo unspecified)	inconclusive: 18.3 µM [activator, partial curve, poor fit]	–
Cc1ccc(-n2c(C)cc(C(=O)COC(=O)c3ccc[nH]c3=O)c2C)cc1C	inconclusive: 5.17 µM [activator, partial curve, poor fit]	–
O=C(c1cc2cc3ccc(Cl)cc3nc2o1)N1CCCCCC1	inconclusive: 5.17 µM [activator, partial curve]	–
COc1ccc(NC(=O)c2ccc(C)cc2)c(OC)c1	inconclusive: 18.4 µM [activator, partial curve]	–
Cc1cccnc1NC(=O)CCNS(=O)(=O)c1ccc2c(c1)c(=O)n(C)c(=O)n2C	inconclusive: 1.46 µM [activator, partial curve, poor fit]	–
Cc1ccc(C(=O)CSc2ccccc2C(=O)O)cc1	–	inactive: 12.5% [at 9.26 µM]
CN(C)c1ccc(/C=N/NC(=O)CNC(=O)c2ccco2)cc1	–	inactive: 6.98%
COc1ccc(/C=C/C(=O)C2C(=O)C=C(C)OC2=O)cc1O (stereo unspecified)	inconclusive: 25.9 µM [activator, partial curve, poor fit]	–
CCNc1nc2c(c(=O)[nH]c(=O)n2C)n1Cc1ccc(F)cc1	active: 23.1 µM	–
COCCn1c(C)cc(C(=O)COC(=O)C23CC4CC(CC(O)(C4)C2)C3)c1C	inconclusive: 2.59 µM [activator, partial curve]	–
COc1cc(C)ccc1OCc1cc(C(=O)NCCN2CCCC(O)C2)no1 (stereo unspecified)	–	inactive: 0.766%
N#C/C(=C\c1ccc(N2CCOCC2)o1)c1ccccc1	inconclusive: 9.2 µM [activator, partial curve]	–
c1cc2c(cc1-n1cnnn1)OCO2	–	inactive: 0.243%
COc1ccc([N+](=O)[O-])cc1NCc1ccccc1	inconclusive: 14.6 µM [activator, partial curve, poor fit]	–
O=C(Cc1ccccc1)NN1CCCCC1	–	inactive: -0.687%
CCCc1nc2oc3ccccc3c(=O)c2c(=O)n1-c1ccc(C)cc1	inconclusive: 9.2 µM [activator, partial curve]	–
CN(/N=C/c1cccnc1)c1cnc2ccccc2n1	inconclusive: 2.91 µM [activator, partial curve, poor fit]	–
Cc1ncoc1C(=O)Nc1ncc([N+](=O)[O-])s1	inconclusive: 1.83 µM [activator, partial curve, poor fit]	–
O=[N+]([O-])c1ccccc1S(=O)(=O)Nc1cccc(-c2ccc(N3CCCC3)nn2)c1	inconclusive: 29.1 µM [activator, single point]	–
C[n+]1ccc(C(=O)Nc2ccccc2Cl)cc1	–	inactive: 2.89%

Compound	Potency	activity change, positive = activation
COCCN(Cc1cc2cc3c(cc2nc1Cl)OCO3)C(=O)c1ccc(C)cc1	inconclusive: 14.6 µM [activator, partial curve, poor fit]	–
COc1cccc(/C=C/C(=O)Nc2ccc(N3CCOCC3)cc2)c1OC	inconclusive: 23.1 µM [activator, partial curve, poor fit]	–
CSc1ccccc1OCc1cc(C(=O)N2CCCC2c2nonc2C)no1 (stereo unspecified)	inconclusive: 5.8 µM [activator, partial curve]	–
Fc1c(F)c(F)c(CSc2nc3ccccc3[nH]2)c(F)c1F	inconclusive: 20.6 µM [activator, single point]	–
O=C(COc1ccccc1)Nc1sc2c(c1C(=O)NCc1cccnc1)CCCC2	inconclusive: 23.1 µM [activator, partial curve, poor fit]	–
COC(=O)c1ccccc1NC(=O)c1ccc(-c2cccc(Cl)c2)o1	inconclusive: 16.4 µM [activator, single point]	–
CN1CCN(c2ccc(NC(=O)c3ccccc3)cc2)CC1	active: 10.3 µM	–
Cc1cc(NC(=O)CSc2nnc3ccccn23)no1	–	inactive: -1.09%
CCCc1nnc(NC(=O)c2nc(S(=O)(=O)Cc3ccc(C)cc3)ncc2Cl)s1	inconclusive: 13 µM [activator, partial curve, poor fit]	–
O=C(Nc1ccc2c(c1)OCO2)Nc1ccc(Cl)cc1Cl	inconclusive: 18.4 µM [activator, partial curve]	–
COc1cc2c(cc1OC)C(c1ccccc1)N(C(=O)CCl)CC2 (stereo unspecified)	inconclusive: 32.6 µM [activator, partial curve, poor fit]	–
COC(=O)c1sccc1NC(=O)Nc1ccc(OC)cc1	inconclusive: 16.4 µM [activator, partial curve, poor fit]	–
O=C(COc1ccc(Cl)cc1)NC1CCSC1=O (stereo unspecified)	inconclusive: 23.1 µM [activator, partial curve, poor fit]	–
O=C(NCc1ccco1)c1noc2c1CCCCC2	inconclusive: 23.1 µM [activator, partial curve, poor fit]	–
CC(=O)c1sc(NC(=O)c2cccc3ccccc23)nc1C	inconclusive: 12.6 µM [activator, single point]	–
O=C1c2ccccc2C(=O)N1CCc1c[nH]c2ccccc12	inconclusive: 2.59 µM [activator, full curve, poor fit]	–
O=C(NC1CCCCC1)C1CCC(=O)N(C2CC2)C1 (stereo unspecified)	–	inactive: 7.52%
Cc1ccc(C(=O)Nc2ccccc2)cc1S(=O)(=O)N1CCN(C)CC1	–	inactive: 3.57%
CCCOC(=O)c1ccc(NC(=O)C2C3CCC(C3)C2C(=O)O)cc1 (stereo unspecified)	inconclusive: 32.6 µM [activator, partial curve, poor fit]	–
COc1ccc(CN(C)S(=O)(=O)c2nnc(NC(=O)c3ccccc3Br)s2)cc1	–	inactive: 0.241%
Cc1c(C(=O)O)c(=O)n(-c2ccccc2)n1-c1ccccc1	–	inactive: -3.02%
O=C(Nc1cc(S(=O)(=O)N2CCCCC2)ccc1Cl)C1COc2ccccc2O1 (stereo unspecified)	–	inactive: -5.67%
Cc1ccc2nc(-c3ccc(N4C(=O)CC(N5CCC(C(N)=O)CC5)C4=O)cc3)sc2c1 (stereo unspecified)	inconclusive: 25.9 µM [activator, partial curve, poor fit]	–
